# Data reported in the RNAGym collection of RNA variant scans (doi:10.1073/pnas.2313332121).
# Variants at the floor of the assay are shown more often than the library holds them.
# B1: TPR 5TU (parent)
# chain: GGAUCUUCUCGAUCUAACAAAAAAGACAAAUCUGCCACAAAGCUUGAGAGCAUCUUCGGAUGCAGAGGCGGCAGCCUUCGGUGGCGCGAUAGCGCCAACGUUCUCAACUAUGACACGCAAAACGCGUGCUCCGUUGAAUGGAGUUUAUCAUG
# Variants of: B1
# Test: polymerase ribozyme fitness, log enrichment relative to wild type (log ratio); higher = more active; in vitro selection for triplet polymerase activity
# Outline: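 Frozen incubation at −7 °C formed the core of a single, triplicate in vitro selection round applied to PCR-built, transcribed mutant libraries of each subunit of a heterodimeric triplet polymerase ribozyme. Extended constructs were gel-excised, captured with streptavidin beads and amplified by RT-PCR, and input and output libraries were Illumina-sequenced with a filter of ≥10 input reads and ≥1 read per output. Fitness is the logarithm of genotype enrichment relative to wild-type enrichment, with inverse-variance-weighted replicate averaging, and the logarithm is base 2.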
row,Variant,polymerase ribozyme fitness (log ratio)
1,GGAUCUUCUCGUUCUAACAAAUAAUACAAUUCUGCCACAAAGCUUGAGAGCAUCUUCGGAUGCAGAGGCGGCAGCCUUCGGUGGCGCGAUAGAGCCAUCGUUCUCAACUAUGACACGCAAAACGCGUGCUCCGUAGAAUGGAGUUUAUCAUG [A12U A22U G25U A30U C93A A98U U135A],≤ -4.2
2,GGAUCUUCUCGUUCUAACAAAACAGACAAAUCUGCCACAAAGCUUGAGAGCAUGGUCGGAUGCAGAGGCGGCAGCCUUAGGUUGCGCGAUAACGCCAACGUUCUCAACUAUGACACGCAAAACCCGUGCUCCGUUGAAUGGAGUAUAUCAUG [A12U A23C C54G U55G C79A G83U G92A G124C U145A],≤ -4.2
3,GGAUCUUCUCGUUCUAACAAAACAGACAAAUCUGCCACAAAGCUUGAGAGCAUUUUCGGAUGCAGAGGCGGCAGCCUUCGGUGGCGCGAUAGCGCCAACGUUCUCAACUAUGACAGGCAAAACGCGUGCUCCGUUGAAUGGAGUUUCUCAAG [A12U A23C C54U C116G A147C U151A],≤ -4.2
4,GGAUCUUCUCGUUCUAACAAAAGAGACAAAUCUGCCACAAAGCUUGAGAGCAUCUUCGGAUGCAGAGGCGGCAGCCUUCGGUGGCGUGAUAGCGCCAACGUUCUCAACUAUGACACGCAAAACGCGUGCUCCGUUGAAUGGAGUUUAUCAUG [A12U A23G C87U],-3.67
5,GGAUCUUCUCGUUCUAACAAAAAAGCCAUAUCUGCCACAAAGCUUGAGAGCAUCUUCGCAUGCAGAGGCGGCAGCCUUCGGUGGGGCGAUAGCGCCAACCUUCUCAACUAUGACAUGCAAAACGCGUGCUCCGUUGAAUGGAGUUUAUAAUG [A12U A26C A29U G59C C85G G100C C116U C149A],≤ -4.2
6,GGAUCUUCUCGUUCUAACAAAAAAGACGAAUCUGCCACAAAGCUUGAGUGCAUGUUCGGAUGCAGAGGCGGCAGCCUUCGGUGGCGCGAUAGGGCCAACGUUCUCAACUAUGACACGCAAAACGCGUGCUCCGUUGAAUGGAGUUUAUCAUG [A12U A28G A49U C54G C93G],≤ -4.2
7,GGAUCUUCUCGUUCUAACAAAAAAGACGAAUCUGCCACAAAGCUUGAGAGCAUCUUCGGAUGCAGAGGCGGCAGCCUUCGGUGGCGCCUUAGCGACAACGUUCUCAACUAUGACACGCAAAACGCGUGCUCCGUUGAAUGGAGUUUAUCAUU [A12U A28G G88C A89U C95A G152U],≤ -4.2
8,GGAUCUUCUCGUUCUAACAAAAAAGACUGUUCUGCCACAAACCUUGAGAGCCUCUUCGGAAGUAGAGGCGGCAGCCUUCGGUAGCGUGAUAGCGCCAACGUUAUCAACUAUGACACGCAAAACGCGUGCUCCGUUGAAUGGAGUUUAUCAUG [A12U A28U A29G A30U G42C A52C U61A C63U G83A C87U C103A],≤ -4.2
9,GGAUCUUCUCGUUCUAACAAAAAAGACUAAUCUGCCACAAAGCUUGAGAGCAUCGUCGGAUGCAGCGGCGGCACCCUUCCGUGGAGUGAUAGCGCUAACGUUCUCAACUAUGACACGCAAAACGCGUGCUCCGUUGAAUGGAGUUUAUCAUG [A12U A28U U55G A66C G74C G80C C85A C87U C96U],≤ -4.2
10,GGAUCUUCUCGUUCUAACAAAAAAGACAAAUCUGCCUCAAAGCUUGAGAGCAUCUUCGGGUGCAGAGGCGGCAGCCUUCGGUGGUCCGUUAGCGCCAACGUUCUCAACUAUGACACGCAAAACGCGUGCUCCGUUGAAUGGAGUUUAUCAUG [A12U A37U A60G C85U G86C A89U],≤ -4.2
11,GGAUCUUCUCGUUCUAACAAAAAAGACAAAUCUGCCACACAGCUUGUGAGCAUCUUCGGAUGCAGAGGCGGCAGCCUUCGGUGGGGCGGUAGCGCCAACGUUCUCAACUAUGACACGCAAAACGCGUGCUCCGUUGAAUGGAGUUUAGCAUG [A12U A40C A47U C85G A89G U148G],≤ -4.2
12,GGAUCUUCUCGUUCUAACAAAAAAGACAAAUCUGCCACACAGCUUGAGAGCAUCUUCGGAUGCAGAGGCGGCAGCCUUCGGUGACGCGAUAGCGCCAAAGUUCUCAACUAUGACACGCAAAACACGUGCUCCGUUGAAUGGAGUUUAGCAUG [A12U A40C G84A C99A G124A U148G],≤ -4.2
13,GGAUCUUCUCGUUCUAACAAAAAAGACAAAUCUGCCACAGAGCUUGAGAGCAUAUUCGGAAGCAGAGGCGGCAGCCUUCGGUAGCGCGAUGGCGCCAACGUUAUCAACUAUGACACGCAAAACGCGUGCUCCGUUGAAUGGAGUUUAUCAUG [A12U A40G C54A U61A G83A A91G C103A],≤ -4.2
14,GGAUCUUCUCGUUCUAACAAAAAAGACAAAUCUGCCACAACGCUUGAGAGCAUCUUCGGAUGCAGAGGCGGCAGCCUUCGGUCGCGCGAUAGCGCCAACGUUCUCAACUAUGACACGGAAAACGCGUGCUCCUUUGAAUGGAGUUUAUCAUG [A12U A41C G83C C118G G133U],≤ -4.2
15,GGAUCUUCUCGUUCUAACAAAAAAGACAAAUCUGCCACAAUGCUUGAGAGCAUCUUCGGAUGCACAGGCCGCAGCCUUUGGUGGCGCGAUAGCGCCAACGUUCUCAACUAUGACACGCAAAACGCGUGCUCCGUUGAAUGGAGUUUAUCAUG [A12U A41U G65C G70C C79U],≤ -4.2
16,GGAUCUUCUCGUUCUAACAAAAAAGACAAAUCUGCCACAAAGCUUGAGAGCAUCUUCGGAUGCAGAGGCGGCAGCCUUCGGUGGCGCGAUGGCGCCAACGUUCUCAACUAUGACACGCAAAACGCGUGCUCCGUUGAAUGGAGUUUAUCAUG [A12U A91G],-2.26
17,GGAUCUUCUCGUUCUAACAAAAAAGACAAAUCUGCCACAAAGCUUGAGAGCAUCUUCGGAUGCAGAGGCGGCAGCCUUCGGUGGCGCGAUUGCGCCAACGUUCUCAACUAUGACACGCAAAACGCGUGCUCCGUUGAAUGGAGUUUAUCAUG [A12U A91U],≤ -4.2
18,GGAUCUUCUCGUUCUAACAAAAAAGACAAAUCUGCCACAAAGCUUGAGAGCAUCUUCGGAUGCAGAGGCGGCAGCCUUCGGUGGCGCGAUAGCGCCAACGUUCUCAACUGUGACACGCAAAACGCGUGCUCCGUUGAAUGGAGUUUAUCAUG [A12U A110G],-3.35
19,GGAUCUUCUCGUUAUAACAAAAAAGACAAAUCUGCCACAAAGCGUGAGAGCAUCUUCGAAUGCAAAGGCGGCAGCCUUAGGUGGCGCGAUAGCGCCAACGUUCUGAACUAUGACACGCAAAACGCGUGCUCCGUUGAAUGGAGUUUAUCAUG [A12U C14A U44G G59A G65A C79A C105G],≤ -4.2
